From patent US10501444B2, “Inhibitors of influenza virus replication, application methods and uses thereof” (SUNSHINE LAKE PHARMA CO., LTD., priority 2016, dated 2019)

Assay: in vivo
Conditions: SD, rat

O=C(O)C1C2CCC(CC2)C1Nc1cc(-c2ccco2)nc(-c2c[nH]c3c(F)cc(F)cc23)n1 (racemic) [Example 52, (+/−)-trans-3-((2-(5,7-difluoro-1H-indol-3-yl)-6-(furan-2-yl)pyrimidin-4-yl)amino)bicyclo[2.2.2]octane-2-carboxylic Acid]
AUC(0-inf) (iv, 1 mg/kg): 5570 ng·h/mL
AUC(0-t) (iv, 1 mg/kg): 5490 ng·h/mL
Cmax (iv, 1 mg/kg): 7420 ng/mL
Tmax (iv, 1 mg/kg): 0.083 h
clearance (iv, 1 mg/kg): 3.02 mL/min/kg
half-life (iv, 1 mg/kg): 1.38 h
AUC(0-t) (po, 5 mg/kg): 22600 ng·h/mL
Cmax (po, 5 mg/kg): 6430 ng/mL
Tmax (po, 5 mg/kg): 1.17 h
half-life (po, 5 mg/kg): 1.29 h
